Data: the BET-seq Pho4 binding data (Le et al. 2018)
The other results are listed elsewhere or left out. Values were computed here from the reads of four pooled replicates and scatter widely.

molecular target: T1, Pho4 (S. cerevisiae) (UniProt P07270); test: relative binding free energy (BET-seq); higher = weaker binding; details: reference: library average
T1 sequence: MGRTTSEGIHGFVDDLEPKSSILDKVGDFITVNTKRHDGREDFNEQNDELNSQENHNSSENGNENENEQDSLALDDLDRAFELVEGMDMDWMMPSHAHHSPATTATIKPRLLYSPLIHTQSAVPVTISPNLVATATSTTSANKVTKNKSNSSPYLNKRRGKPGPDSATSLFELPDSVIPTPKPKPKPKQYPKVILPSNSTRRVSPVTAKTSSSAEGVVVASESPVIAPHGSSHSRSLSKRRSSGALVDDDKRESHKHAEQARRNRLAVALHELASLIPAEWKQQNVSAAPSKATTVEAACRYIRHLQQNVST

Row | Sequence | relative binding free energy [kcal/mol]
1 | TTCGTCACGTGGACGT | 0.1
2 | GAGTACACGTGTTTAG | 0.21
3 | TGATTCACGTGTTTGG | 0.28
4 | TTTGGCACGTGCGTGT | -0.23
5 | GGGAGCACGTGTGTGA | -0.01
6 | GGTACCACGTGAATGG | 0.39
7 | CTGTGCACGTGTTTAA | -0.03
8 | GTTGGCACGTGGAGGG | -0.06
9 | GGGTACACGTGATTAG | 0.34
10 | ATTTACACGTGTGGTC | 0.08
11 | GTGATCACGTGTCATG | 0.12
12 | TGGAGCACGTGGTTAG | -0.09
13 | TCGGTCACGTGTTAGA | 0.1
14 | TATTCCACGTGATTTG | 0.22
15 | TAAGGCACGTGATAGT | -0.09
16 | TTAGGCACGTGCTTGA | -0.25
17 | TGTGACACGTGATGTT | 0.09
18 | ATTTGCACGTGGTCCG | -0.08
19 | TACGACACGTGTGGTA | 0.14
20 | TGTGGCACGTGGCGGT | -0.12
21 | GTGGTCACGTGGTCGG | 0.1
22 | GTTGTCACGTGAGCGG | 0.21
23 | GGGATCACGTGTAGAT | 0.24

Row | Sequence | relative binding free energy [kcal/mol]
24 | TTTTTCACGTGGGCGG | 0.12
25 | ATTTTCACGTGGCGGA | 0.41
26 | GTGAACACGTGTTATT | 0.05
27 | TTGCTCACGTGGTTTA | 0.14
28 | CGGGTCACGTGCAAGG | 0.04
29 | CTGTGCACGTGCGGTT | -0.16
30 | TGGAACACGTGGTTGC | -0.03
31 | TTGGTCACGTGTGCTT | 0.03
32 | ATGAACACGTGGGAGT | -0.06
33 | TATAACACGTGGTTGT | 0
34 | CGTAGCACGTGTAAGG | -0.03
35 | GAATTCACGTGGCGTA | 0.33
36 | TGGGGCACGTGCTTTT | -0.19
37 | ATGGTCACGTGAATAT | 0.29
38 | GGGATCACGTGGTTCG | 0.14
39 | GTTTTCACGTGGTATC | 0.36
40 | CGAAACACGTGTGGGT | 0.02
41 | GTCGGCACGTGGATGT | -0.08
42 | GTACACACGTGTTGGG | 0.09
43 | GGCTGCACGTGGTTAA | -0.01
44 | TCTGTCACGTGGGATA | -0.12
45 | AAAATCACGTGTTTGT | 0.21
46 | ATATCCACGTGTAGGG | -0.01

Row | Sequence | relative binding free energy [kcal/mol]
47 | CGATTCACGTGTGGAT | 0.33
48 | ATGCGCACGTGAGGTT | 0.17
49 | CTTTGCACGTGAGGTG | 0.13
50 | AGATCCACGTGTGGTT | 0.11
51 | ATGTTCACGTGGGTAG | 0.21
52 | TACCGCACGTGTGTGG | 0.08
53 | GTCGGCACGTGTTTTG | 0.17
54 | TGTTGCACGTGTAAGT | 0.12
55 | ACGGACACGTGGGAGG | -0.15
56 | GTTGGCACGTGTATGC | -0.04
57 | TATTTCACGTGTGGGA | 0.38
58 | TTGATCACGTGTACGT | 0.23
59 | CTGGTCACGTGTTAGT | 0.14
60 | TTGCGCACGTGGGACG | -0.14
61 | TTTTTCACGTGCTATA | 0.23
62 | GTGTGCACGTGATGTC | 0.16
63 | TCGGTCACGTGGGGCA | -0.11
64 | GTGAACACGTGGTGAG | -0.06
65 | GTTATCACGTGTGTCG | 0.16
66 | TATTGCACGTGAAGTT | 0.12
67 | CATGTCACGTGGGAAG | 0.12
68 | TTAGGCACGTGATTCG | -0.05
69 | TGGGACACGTGTTGTC | 0.1

Row | Sequence | relative binding free energy [kcal/mol]
70 | CGGTGCACGTGGCGAG | -0.06
71 | TCAGGCACGTGGGCAG | -0.3
72 | CTTATCACGTGGTGAG | 0.15
73 | TAAGGCACGTGTATTA | -0.16
74 | GGGGACACGTGCGGCA | -0.01
75 | AGTCTCACGTGGGATG | 0.1
76 | GGAGCCACGTGCGGGG | -0.17
77 | GTATACACGTGACGGT | 0.24
78 | TTGTGCACGTGGCGTG | -0.1
79 | TTGTACACGTGGGGGG | 0
80 | ATTTTCACGTGGGTGT | 0.14
81 | TGCGTCACGTGCGGAT | 0.03
82 | CGATGCACGTGGTAGG | -0.03
83 | TGATTCACGTGAATTA | 0.39
84 | ACAGGCACGTGTGTGA | -0.09
85 | ATATGCACGTGTGTTG | -0.01
86 | GTGTTCACGTGTGAAA | 0.32
87 | TGCTGCACGTGATATT | 0.07
88 | TATAGCACGTGGTCGG | -0.25
89 | GTCAGCACGTGGAGAG | -0.01
90 | AGGTTCACGTGCAGAT | 0.2
91 | TCAATCACGTGTGGTG | 0.17
92 | AGTTACACGTGCTAGT | 0.11

Row | Sequence | relative binding free energy [kcal/mol]
93 | AATTGCACGTGTTTAA | 0.01
94 | CTTATCACGTGGCTGT | 0.04
95 | AAGATCACGTGAGGTT | 0.31
96 | TTTGTCACGTGTAGCA | 0.07
97 | TTGTCCACGTGGTTTC | 0.1
98 | ATGGTCACGTGGTTCG | 0
99 | ATGCGCACGTGTGAGG | -0.04
100 | AAGCTCACGTGGTTTA | 0.3
101 | GAGTGCACGTGATGAA | 0.26
102 | CTGTTCACGTGGAGGT | 0.24
103 | GGTAGCACGTGGCGAA | 0
104 | TTGAGCACGTGTATCT | -0.09
105 | ATTTGCACGTGAGTGA | 0.14
106 | TGGTACACGTGGCGAG | 0.02
107 | AGTGGCACGTGCGGTT | -0.17
108 | GTGTACACGTGAGTGG | 0.23
109 | CTGGTCACGTGGCGGA | 0.16
110 | GCCTTCACGTGCGGGT | 0.34
111 | TTAGGCACGTGCCAGG | -0.14
112 | TATTTCACGTGTGTAC | 0.18
113 | CTCAACACGTGTTGGG | 0.19
114 | GGGGTCACGTGGGGAA | 0.11
115 | TTTTTCACGTGGTCTC | 0.16
